# Measurements as given in the RNAGym collection of RNA variant scans (doi:10.7554/elife.90254).
# Read counts are not given, so values of variants with three or more changes are uncertain.
# B1: LINE1-mini (parent)
# chain: GGCAGAGCUCAACACAGCGUGGCAAAGUGGCUGUGGCUAGACUGCC
# Variants of: B1
# Test: self-cleavage, relative activity (ratio to wild type); higher = more cleavage; in vitro, sequencing; the parent is a self-cleaving ribozyme
row,Variant,self-cleavage
1,GGCUGAGCUCAACACAGCGUAGCAAAGUGGCUGUGACUAGACUGCC [A4U G21A G36A],0.15
2,GGCUGAGCUCAACACAGCGUGGCAAACAGGAUGUGGAUAGACUGCC [A4U G27C U28A C31A C37A],0.02
3,GGCUGAGCUCAACACAGCGUGACAAAGUGGCUGUGGCGAGACUGUC [A4U G22A U38G C45U],0.17
4,GGCUGAGCUCAACACAUCGUGGCAAAGUGGCUGUGGCUAGACUGGC [A4U G17U C45G],0.11
5,GGCUCAGCUCAACACAGCGUUCCAAAGCCGCUGUGGCUAGACUGCC [A4U G5C G21U G22C U28C G29C],0.03
6,GGCUCAACUCAGCACAGCGUGGCAAAGUGGCUGUGGCUAGACUGCC [A4U G5C G7A A12G],0.28
7,GGCUGAACUCAACACAGCGUUGCAAAGUGGCUGUGGCUUGACGGCC [A4U G7A G21U A39U U43G],0.01
8,GGCUGAGCUCAACACAGCGUGGCAAAGUGGCUGUGCCUAAACUGUC [A4U G36C G40A C45U],0.17
9,GGCUGAGCUCAACACACCGUGGCAAAGUGCCUGUGGCUAGACUGCC [A4U G17C G30C],0.06
10,GGCUGAGCUCAACACACCGUGGCAAAGUGGCUGAGGCUAGACUGCC [A4U G17C U34A],0.03
11,GGCUGAUCUCAACACAGCGUGGCAAAGUGGCUUUGGCUAGACUGCC [A4U G7U G33U],0.15
12,GGCUGAGCUCAACACAGCGUGGCAAAGUGGCUGUGGAUAGACUGGC [A4U C37A C45G],0.03
13,GGCUGAGCUCAACACAGCGUGGCAAAGUCGCUGUGGCUAGACUCCC [A4U G29C G44C],0.08
14,GGCUGAGCUCAACACAGCGUGGCAAAGUAACUGUGCCUAGACUGCC [A4U G29A G30A G36C],0.07
15,GGCUAAGAUCAACACAGCGUCGCAAAGUAGCUGUUGCUAGACUGCC [A4U G5A C8A G21C G29A G35U],0.04
16,GGCUGAGCUCAACACAUCGUGGCAAAGUGGCUGUGGCUUGACUGCC [A4U G17U A39U],0.07
17,GGCUGAACUCAACACAGCGUGGCAAAGUGGCUGUGGCUAUAUUGCC [A4U G7A G40U C42U],0.2
18,GGCUCAGCUCAACACAGCGUGUCAAAGUGGCUGUGGCUAGACUGCC [A4U G5C G22U],0.06
19,GGCUGAGCUCAACACAGCGUCGCAAAGUGGCUCUGGCUAGACUGCC [A4U G21C G33C],0.02

row,Variant,self-cleavage
1,GGCUUAGCUCAAUACAGCGUGGCAGAGUGGCUGUGGUUAGACUGCC [A4U G5U C13U A25G C37U],0.1
2,GGCUGAGCUCAACACAGCGUAGAAAAGUGGCUGUGGCUAGACUGCC [A4U G21A C23A],0.06
3,GGCUGAACUCAUCACAGCCUGCCGAAGUGGCUGUGGCUAGACUGCC [A4U G7A A12U G19C G22C A24G],0.03
4,GGCUAAGCUCAACACAGCGUGGCAAAGUGGCUGUGGCAAGACUGCC [A4U G5A U38A],0.04
5,GGCUGAGCUCAACACAGCGUGGCAAAGUGGCUGUGGCUAAGCUGCC [A4U G40A A41G],0.04
6,GGCUGAGCUCAACACAGCCUGGAAAAGUGGCCGUGGCUAGACUGCC [A4U G19C C23A U32C],0.02
7,GGCUGAGCUCAACACAGCGUGACAAAGUGGCUGUGGGUAGACUGAC [A4U G22A C37G C45A],0.02
8,GGCUUAGAUCAACACAGCGUGGCAGAGUGGCUGUGGCUAGACUGCC [A4U G5U C8A A25G],0.36
9,GGCUGAGCUCAACACAAUGUGUCAAAGUGGCUGUGGCUAGACUGCC [A4U G17A C18U G22U],0.04
10,GGCUAAGGUCAACACAGCGUGGCAAAGUGGCAGUGGCUAGACUGCC [A4U G5A C8G U32A],0.07
11,GGCUUAGCUCAACACAGCGUGGCAAAGUGGCUGUGGCUAGACCGCC [A4U G5U U43C],0.04
12,GGCUGAGCUCAACACAUCGUGGCAAAGUGGCUGUGGCUAGAAUGCC [A4U G17U C42A],0.07
13,GGCUGAGCUCAACACAGCGUGGCAAAGUGGCUGUUGCUAGACUACC [A4U G35U G44A],0.04
14,GGCUAAGCUCGACACAGCGUGGCAAAGUGGCUGUGGCUAGACUGCC [A4U G5A A11G],0
15,GGCUGAGCUCAACACAUCGUGGGAAAGUGGCUGUGGCUAGACUGCC [A4U G17U C23G],0.03
16,GGCUAAGCUCGACACAGCGUCGCAAAGUGGCUGUGGCUAGACUGCC [A4U G5A A11G G21C],0.03
17,GGCUGAGCUCAACACAGCGUGGCAAAGUGGCUGUGGCUAAACUGCA [A4U G40A C46A],0.04
18,GGCUGAGCUCAACACACCGAGGCAAAGUGGCUGUGGCUAGAGUGCC [A4U G17C U20A C42G],0.01
19,GGCUAAGCUCAACACAGCGUGGCAAAGUGGCUGGGGCUAGACUGCC [A4U G5A U34G],0.03

row,Variant,self-cleavage
1,GGCUAAGCUCAACACAGCGUGGCAAAGUGGCUGAGGCUAGACUGCC [A4U G5A U34A],0.02
2,GGCUUAGCUCAACACAGCGUGGCAAAGUGGCUGUGGCUAUACUGCC [A4U G5U G40U],0.11
3,GGCUAAGCUCAACACAGCGUGGCAAAUUGGCUGUGGCUAGACUGCC [A4U G5A G27U],0.08
4,GGCUUAGCUCAACACAGCGUGGCAAAGUGGCGGUGGCUAGAUUGCC [A4U G5U U32G C42U],0.04
5,GGCUUAGCUCAACACAGUGUGGCAAAGUGGCUGUGGCUAGACUGCC [A4U G5U C18U],0.12
6,GGCUGAUCUCAAGACAGCGUGGCAAAGUGGCUGUGGCUAGACAGCU [A4U G7U C13G U43A C46U],0.02
7,GGCUUAGCUCAGCACAGUAUGGCAAAGUGGCUGUGGCUAGACUGCC [A4U G5U A12G C18U G19A],0.07
8,GGCUGAGCUCAACACAGCGUGGCAAAGUGGCUGUGUCUAGACUGCU [A4U G36U C46U],0.28
9,GGCUGAGCUCAACACAGCGUGGCAAAGUGUCUGUGGCUAGGCUGCC [A4U G30U A41G],0.03
10,GGCUGAGCUCAACACAGCGUGGCAAAGUAGCUGUGGCUAGACUGAC [A4U G29A C45A],0.09
11,GGCUUAGCUCAACACAGCGUGGCAAAGUGGCUGUGGUUAGACUGCC [A4U G5U C37U],0.05
12,GGCUGAGCUCAACACAAUGUGGCAAAGUGGCUGUGGCUAGACUGCC [A4U G17A C18U],0.13
13,GGCUGAGCACAACACAGCGUGGCACAGUGGCUAUGGCUAGACUGCC [A4U U9A A25C G33A],0.21
14,GGCUGAGCUCAACACAGCGUGACAAAGUGGCUGUGGCUUGACUGCC [A4U G22A A39U],0.05
15,GGCUGAGCUCAACACAUCGUGUCAAAGUGGCUGUGGGUAGACUGCC [A4U G17U G22U C37G],0.03
16,GGCUGAUCUCAACACAGCGUCGCAAAAUGGCUGUGACUAGGCUGCC [A4U G7U G21C G27A G36A A41G],0.03
17,GGCUGAGCUCAACACAGCCUGGCAAUGUGGCUGUGGCUAGUCUGCC [A4U G19C A26U A41U],0.32
18,GGCUGAGCACAAUACAGCGUGGCAAAGUGGCUGUGGCUAGACUGCA [A4U U9A C13U C46A],0.09
